This is an account of results in the antibiotic and cytotoxicity screens of Wong et al. (2023).

This is one part of the list.

In assay [1] the test system is HSkMC (human skeletal muscle cells). The experiment in a line: cytotoxicity call (relative viability < 0.9). The conditions noted are these: 10 µM.
The test system of assay [2] is HepG2. The assay is described as follows: cytotoxicity call (relative viability < 0.9). The conditions noted are these: 10 µM.
Assay [3] relates to S. aureus RN4220. The experiment in a line: growth inhibition call (relative growth <= 0.2). The conditions noted are these: 50 µM.

In the case of `C[C@@H]1CN([C@H](C)CO)C(=O)c2cc(NC(=O)Nc3cccc4ccccc34)ccc2O[C@@H]1CN(C)C(=O)Nc1ccc(F)cc1`, the cytotoxicity call in assay [1] and in assay [2] was “inactive” each time. For the same compound, the growth inhibition call in assay [3] was “inactive”.

For `C[C@H](CO)N1C[C@H](C)[C@H](CN(C)C(=O)NC2CCCCC2)Oc2ccc(NC(=O)Nc3cccc4ccccc34)cc2C1=O`, the cytotoxicity call in assay [1] and in assay [2] was “inactive” throughout. Besides, in assay [3], the growth inhibition call was “inactive”.

In the case of `CN(C)C(=O)c1ccc(-c2cccc(-c3nc(C(=O)NCc4ccccc4)cc4c3[C@H](CCO)N([S@@](=O)C(C)(C)C)C4)c2)cc1`, the cytotoxicity call in assay [1] and in assay [2] was “inactive” in each case. In assay [3], the growth inhibition call was “inactive”.

As for `COCCNCc1ccc(-c2cc3nccc(Oc4ccc(NC(=O)C5(C(=O)Nc6ccc(F)cc6)CC5)cc4F)c3s2)nc1`, the cytotoxicity call in assay [1] and in assay [2] was “active” in each case. The growth inhibition call in assay [3] is “inactive”.

With `COc1ccccc1CN1C(=O)c2ccccc2[C@@]2(Cc3ccccc3N(CCCN(C)C)C2=O)[C@@H]1c1ccc(CO)cc1`, the cytotoxicity call in assay [1] and in assay [2] was “inactive” in each case. Moreover, in assay [3], the growth inhibition call is “inactive”.

With `C[C@H](CO)N1C[C@H](C)[C@H](CN(C)S(=O)(=O)c2ccc(F)cc2)Oc2c(NS(C)(=O)=O)cccc2C1=O`, the cytotoxicity call in assay [1] and in assay [2] was “inactive” throughout. Besides, the growth inhibition call in assay [3] was “inactive”.

As to `COC(=O)C[C@H]1CC[C@H]2[C@@H](COC[C@@H](O)CN2S(=O)(=O)c2ccccc2C)O1`, the cytotoxicity call in assay [1] and in assay [2] was “inactive” throughout. In addition, the growth inhibition call in assay [3] is “inactive”.

With `COC(=O)c1c(C)cc(OC(=O)c2c(C)cc(O)c(C=O)c2O)c(C)c1O`, the cytotoxicity call in assay [1] and in assay [2] was “inactive” each time. Besides, the growth inhibition call in assay [3] is “inactive”.

Take `CC[C@@H](N)c1nc(C)c(C)s1`: the cytotoxicity call in assay [1] and in assay [2] was “inactive” throughout. Further, the growth inhibition call in assay [3] is “inactive”.

For `C[C@@H]1CCCCO[C@H](CN(C)Cc2ccc(C(=O)Nc3ccccc3N)cc2)[C@@H](C)CN([C@H](C)CO)C(=O)c2cc(NS(=O)(=O)c3ccc(F)cc3)ccc2O1`, the cytotoxicity call in assay [1] and in assay [2] was “inactive” each time. Moreover, the growth inhibition call in assay [3] is “inactive”.

Regarding `C[C@@H]1CCCCO[C@@H](CN(C)S(=O)(=O)c2cn(C)cn2)[C@H](C)CN([C@@H](C)CO)C(=O)c2cc(NC(=O)Nc3cccc4ccccc34)ccc2O1`, the cytotoxicity call in assay [1] and in assay [2] was “inactive” in each case. For the same compound, the growth inhibition call in assay [3] is “inactive”.

As to `C[C@@H]1CN([C@@H](C)CO)C(=O)Cc2cc(NS(C)(=O)=O)ccc2O[C@H]1CN(C)S(=O)(=O)c1cn(C)cn1`, the cytotoxicity call in assay [1] and in assay [2] was “inactive” throughout. For the same compound, the growth inhibition call in assay [3] was “inactive”.

Regarding `Cc1cc(C(=O)Nc2cccc3c2O[C@@H](CN(C)S(=O)(=O)c2cccs2)[C@H](C)CN([C@@H](C)CO)C3=O)n(C)n1`, the cytotoxicity call in assay [1] and in assay [2] was “inactive” throughout. In addition, in assay [3], the growth inhibition call is “inactive”.

With `C[C@@H]1CN([C@@H](C)CO)C(=O)c2cccc(NC(=O)C3CC3)c2O[C@H]1CN(C)Cc1ccc2c(c1)OCO2`, the cytotoxicity call in assay [1] and in assay [2] was “inactive” each time. In assay [3], the growth inhibition call was “inactive”.

With `C[C@H](CO)N1C[C@H](C)[C@@H](CN(C)Cc2ccc(-c3ccccc3)cc2)Oc2c(NC(=O)C3CCCCC3)cccc2C1=O`, the cytotoxicity call in assay [1] and in assay [2] was “inactive” each time. Also, in assay [3], the growth inhibition call is “inactive”.

Take `C[C@@H]1CN([C@H](C)CO)C(=O)Cc2cc(NS(=O)(=O)c3ccc(Cl)cc3)ccc2O[C@H]1CN(C)C`: the cytotoxicity call in assay [1] and in assay [2] was “inactive” throughout. Also, the growth inhibition call in assay [3] was “inactive”.

Turning to `Cc1ccc(S(=O)(=O)Nc2ccc3c(c2)C(=O)N([C@H](C)CO)C[C@H](C)[C@@H](CN(C)S(=O)(=O)c2ccc(F)cc2)OCCCC[C@@H](C)O3)cc1`, the cytotoxicity call in assay [1] and in assay [2] was “inactive” in each case. Moreover, in assay [3], the growth inhibition call was “inactive”.

Take `C=CCOC(=O)[C@H]1[C@@H]2C(=O)O[C@@H](c3ccccc3)[C@@H](c3ccccc3)N2[C@@H](c2ccc(OCCOC(=O)[C@H]3C[C@H]4C(=O)N[C@@H](CCCCNC(C)=O)C(=O)N4[C@H]3c3ccc(O)cc3)cc2)[C@]12C(=O)Nc1ccc(I)cc12`: the cytotoxicity call in assay [1] and in assay [2] was “inactive” each time. Besides, the growth inhibition call in assay [3] was “inactive”.

Regarding `Cc1ccc(S(=O)(=O)Nc2ccc3c(c2)CC(=O)N([C@@H](C)CO)C[C@H](C)[C@H](CN(C)S(=O)(=O)c2cn(C)cn2)O3)cc1`, the cytotoxicity call in assay [1] and in assay [2] was “inactive” each time. Moreover, the growth inhibition call in assay [3] is “inactive”.

For the compound `CN(C)c1cc[n+](C(=O)N2CCOCC2)cc1`, the cytotoxicity call in assay [1] and in assay [2] was “inactive” throughout. The growth inhibition call in assay [3] was “inactive”.

Consider `C[C@@H]1CN([C@@H](C)CO)C(=O)CCCn2nncc2CO[C@@H]1CN(C)C(=O)Nc1cccc2ccccc12`, for which the cytotoxicity call in assay [1] and in assay [2] was “inactive” in each case. The growth inhibition call in assay [3] was “inactive”.

Consider `O=C(N[C@@H]1CC=CC[C@H](CC(=O)N(CCO)Cc2ccccc2)C(=O)N[C@@H](c2ccccc2)COC1=O)OCC1c2ccccc2-c2ccccc21`, for which the cytotoxicity call in assay [1] and in assay [2] was “inactive” each time. Further, the growth inhibition call in assay [3] is “inactive”.

In the case of `Cc1noc(C)c1NC(=O)Nc1ccc2c(c1)C(=O)N([C@@H](C)CO)C[C@H](C)[C@H](CN(C)Cc1ccc(Oc3ccccc3)cc1)O2`, the cytotoxicity call in assay [1] and in assay [2] was “inactive” each time. For the same compound, the growth inhibition call in assay [3] was “inactive”.

For `COc1ccc(NC(=O)Nc2ccc3c(c2)C(=O)N([C@H](C)CO)C[C@H](C)[C@@H](CN(C)C(=O)C2CCCCC2)OCCCC[C@@H](C)O3)cc1`, the cytotoxicity call in assay [1] and in assay [2] was “inactive” each time. Also, the growth inhibition call in assay [3] is “inactive”.
